The target in this experiment is T1, Interleukin-10 (IL-10) (human, UniProt P22301 19-178).
T1 construct: Recombinant human IL-10 was used in the ELISA, and IL-10 at 40 ng/mL in the STAT3 assay; also called recombinant human IL-10; rhIL-10
The experiment in a line: ELISA, immobilized IL-10. Background: In an ELISA, binding on a coated surface is turned into a signal by an enzyme label.

From US20210128615A1 (CHEMOTHERAPEUTISCHES FORSCHUNGSINSTITUT GEORG SPEYER HAUS, published 2021) come the findings set out here.

T1 sequence (P22301 19-178 limits assumed): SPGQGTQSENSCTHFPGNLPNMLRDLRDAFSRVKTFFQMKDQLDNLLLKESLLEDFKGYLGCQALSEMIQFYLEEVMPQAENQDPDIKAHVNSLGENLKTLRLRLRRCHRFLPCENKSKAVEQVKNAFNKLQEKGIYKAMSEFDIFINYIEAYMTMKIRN

B1: recombinant tetravalent anti-IL-10 mini-antibody (antibody, human IgG4)
chain: EVQLVESGGGLVQPGGSLRLSCAASGFSFATYGVHWVRQSPGKGLEWLGVIWRGGSTDYSAAFMSRLTISKDNSKNTVYLQMNSLRAEDTAVYFCAKQAYGHYMDYWGQGTSVTVSSGGGGSGGGGSGGGGSDVVMTQSPLSLPVTLGQPASISCRSSQNIVHSNGNTYLEWYLQRPGQSPRLLIYKVSNRFSGVPDRFSGSGSGTDFTLKISRVEAEDVGVYYCFQGSHVPWTFGQGTKVEIKASVRSPP[left out - human IgG4 Fc]GSGGGTSGEVQLVESGGGLVQPGGSLRLSCAASGFSFATYGVHWVRQSPGKGLEWLGVIWRGGSTDYSAAFMSRLTISKDNSKNTVYLQMNSLRAEDTAVYFCAKQAYGHYMDYWGQGTSVTVSSGGGGSGGGGSGGGGSDVVMTQSPLSLPVTLGQPASISCRSSQNIVHSNGNTYLEWYLQRPGQSPRLLIYKVSNRFSGVPDRFSGSGSGTDFTLKISRVEAEDVGVYYCFQGSHVPWTFGQGTKVEIK
notes: Disulfide-linked homodimer of scFv(BT-063)-hinge-CH2-CH3 (human IgG4)-scFv(BT-063); also called tetravalent anti-IL-10 antibody
For B1, the binding result is on record as “binds”.
